The other results are listed elsewhere or left out. Values were computed here from the reads of four pooled replicates and scatter widely.
target: T1, Pho4 (S. cerevisiae) (UniProt P07270); assay: relative binding free energy (BET-seq); higher = weaker binding; conditions: reference: library average
T1 sequence: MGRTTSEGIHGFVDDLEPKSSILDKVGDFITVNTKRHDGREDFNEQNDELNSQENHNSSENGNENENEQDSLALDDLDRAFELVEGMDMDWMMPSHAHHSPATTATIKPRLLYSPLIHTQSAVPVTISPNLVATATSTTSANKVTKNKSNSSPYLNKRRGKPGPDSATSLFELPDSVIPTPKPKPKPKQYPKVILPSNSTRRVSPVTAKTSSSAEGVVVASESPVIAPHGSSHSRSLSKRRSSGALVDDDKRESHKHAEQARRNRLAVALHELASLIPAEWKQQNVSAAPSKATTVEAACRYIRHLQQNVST

Sequence | relative binding free energy [kcal/mol]
TGACGCACGTGCGGTG | -0.22
GTAGGCACGTGGGCAT | -0.11
GGAAACACGTGAGGTG | 0.26
CTATTCACGTGGTTTA | 0.17
ATTTTCACGTGGACTT | 0.24
CGGGGCACGTGTGCCG | -0.08
CTTAGCACGTGGGTTG | -0.21
GTCAACACGTGCGTGG | 0.06
TGCTGCACGTGGTTGG | -0.04
TGTTTCACGTGGAATG | 0.26
ATGTACACGTGGTTGA | 0.13
CAGGACACGTGGTATG | -0.13
AGGATCACGTGTCGTT | 0.11
CAGAACACGTGGGTGT | -0.06
CGGTGCACGTGATATG | 0.01
GATGGCACGTGAGATA | 0.14
TGCTCCACGTGGGTGG | -0.14
GTAGACACGTGAGGTC | 0.35
TGTGTCACGTGGTTGC | 0.01
GCAAACACGTGTGGGT | 0.13
TATGGCACGTGTGGAG | -0.09

Sequence | relative binding free energy [kcal/mol]
TGGGACACGTGGCATA | -0.05
GGTTTCACGTGAGTTG | 0.41
CGGTGCACGTGACGGT | -0.03
CGGTTCACGTGAGGGT | 0.52
CTGTGCACGTGCGTGT | -0.04
AGGTTCACGTGTGTCT | 0.39
CGGGTCACGTGATTAA | 0.43
AGTGGCACGTGTAGGA | -0.13
GGAGTCACGTGTTGAT | 0.21
CGGTCCACGTGTTGTG | -0.06
TTTCGCACGTGATCGG | 0
GGAGGCACGTGTAATT | 0.02
TTTTGCACGTGCAGCT | -0.05
GGTCGCACGTGTGTAT | 0.09
TGGGTCACGTGGCGTG | 0.12
ACGTTCACGTGGATTG | 0.22
ACATGCACGTGGGAGA | 0.04
TTTATCACGTGTCGGT | 0.25
AGTACCACGTGGGTTG | -0.23
GTTAACACGTGGTCGT | -0.1
GTATCCACGTGTTGGT | 0.04

Sequence | relative binding free energy [kcal/mol]
TGAGTCACGTGATTCG | 0.26
AGTACCACGTGATGGG | -0.01
TCTTGCACGTGAGGGC | 0.19
ATCGTCACGTGTTTAT | 0.04
GAGTTCACGTGTTGCA | 0.25
GAGTTCACGTGTAAAT | 0.49
TGGATCACGTGGCTTG | -0.11
CGTTACACGTGAGTGG | 0.26
TTTGTCACGTGTTTCT | 0.15
GTGGGCACGTGAAATA | 0.17
AGATGCACGTGAGGAT | 0.12
GTAGTCACGTGTTGCG | 0.27
TTATTCACGTGAAGAG | 0.23
TTCTCCACGTGTTGGT | -0.09
GTAGACACGTGATTTG | 0.06
GTTAGCACGTGCTCGG | -0.1
ATGTGCACGTGCTCTG | -0.07
TTAGCCACGTGGTGTT | -0.05
GTAGGCACGTGCGTGA | -0.21
ACGAGCACGTGGGGCG | -0.3
ATTAGCACGTGAGGGG | 0.16

From the BET-seq Pho4 binding data (Le et al. 2018)
